{"source": "PubChem BioAssay AID743279", "about": "(National Center for Advancing Translational Sciences (NCATS), 2014)", "note": "Out of some 360,000 compounds screened, about 17,000 (4.7%) were called active. This list was built around the results that the source calls inconclusive (neither active nor inactive); the mix of calls is not that of the screen. No stated cut-off is given here; in the data, active means activity change below about -50%; inconclusive means mostly about -30% to -49%; inactive means weaker than that. On the % scale 0 is the no-effect control and ±100 the full control effect."}
{"experiment": "qHTS for Inhibitors of Inflammasome Signaling: IL-1-beta AlphaLISA Primary Screen", "conditions": "THP-1 LPS/ATP IL-1B secretion, 16 h; at 57.5 µM, active compounds read low", "in_short": "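THP-1 cells pretreated 1 hr with compounds (up to 57.5 uM final), then stimulated with LPS (250 ng/mL final) plus ATP (1.25 mM final); secreted IL-1B measured by AlphaLISA after 16 hr, decreased signal indicating inhibition.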"}
{"smiles": "COc1ccc(C2Nc3cc(OC)ccc3-n3cccc32)cc1", "note": "(stereo not given)", "activity change": "inconclusive: -38%"}
{"smiles": "CCCCCCN1CCN(C2CN(Cc3cn(Cc4cccc(Cl)c4)nn3)S(=O)(=O)C2)CC1", "note": "(stereo not given)", "activity change": "inconclusive: -44.5%"}
{"smiles": "O=C(COC(=O)CCN1C(=O)/C(=C\\C=C\\c2ccccc2)SC1=S)Nc1cc(F)ccc1F", "activity change": "inconclusive: -37.3%"}
{"smiles": "Cc1ccc(C)c(NC(=O)c2ccccc2Sc2ccc([N+](=O)[O-])cc2Cl)c1", "activity change": "inconclusive: -30.1%"}
{"smiles": "CCOC(=O)c1ccccc1NC(=O)c1ccc(F)cc1", "activity change": "inactive: -24.4%"}
{"smiles": "CC(=O)Nc1nc(C)c(-c2csc(Nc3ccc(O)cc3)n2)s1", "activity change": "active: -88.4%"}
{"smiles": "Cc1ccc(-c2c(C(=O)N/N=C/c3ccc4c(c3)OCO4)nnn2-c2nonc2N)cc1", "activity change": "inconclusive: -43.9%"}
{"smiles": "CCC1Oc2ccc(C)cc2N(CC(=O)NCCN2CCCCCC2)C1=O", "note": "(stereo not given)", "activity change": "inconclusive: -37.3%"}
{"smiles": "COc1ccc(C(C(=O)NC2CCCCC2)N(Cc2cccs2)C(=O)Cc2c[nH]c3ccccc23)cc1OC", "note": "(stereo not given)", "activity change": "inconclusive: -47.1%"}
{"smiles": "N#Cc1nc(COc2ccc(F)cc2)oc1N1CCN(Cc2ccccc2)CC1", "activity change": "inconclusive: -49.3%"}
{"smiles": "O=c1oc2ccccc2cc1-c1csc(NN=C2CCCCC2)n1", "activity change": "inactive: -11.5%"}
{"smiles": "c1ccc(-c2nc(N3CCN(c4ccccc4)CC3)nc(-n3ccnc3)n2)cc1", "activity change": "inconclusive: -46%"}
{"smiles": "CCNC(=O)/C(C#N)=C/c1c(N(Cc2ccccc2)Cc2ccccc2)nc2ccccn2c1=O", "activity change": "active: -55.4%"}
{"smiles": "CCOc1ccc(C(=O)c2cc([N+](=O)[O-])ccc2N2CCOCC2)cc1", "activity change": "inactive: 7.72%"}
{"smiles": "CC(=O)Nc1ccc(SC[C@H](Cc2ccccc2)N2CC[C@@H](C)CCC2=O)cc1", "activity change": "inconclusive: -37.8%"}
{"smiles": "CCC(=O)N1CCN(c2ccc(Cl)cc2NC(=O)c2ccc3c(c2)OCCO3)CC1", "activity change": "inactive: -12%"}
{"smiles": "N#CC1=C(SCC(=O)NC23CC4CC(CC(C4)C2)C3)NC(=O)C(C#N)C12CCCCC2", "note": "(stereo not given)", "activity change": "inconclusive: -43.3%"}
{"smiles": "Cc1ccc(C(=O)NCC(=O)OCC(=O)NC(C)C2CC3CCC2C3)cc1", "note": "(stereo not given)", "activity change": "inconclusive: -35.6%"}
{"smiles": "CN(C)C(=O)N1CCC(C(=O)NCc2ccccc2Cl)CC1", "activity change": "inconclusive: -40.8%"}
{"smiles": "COc1cccc(-c2cnc3c(NC(C)=O)cc(-c4ccc(C(=O)N5CCOCC5)cc4)cn23)c1", "activity change": "inconclusive: -32.2%"}
{"smiles": "COc1ccc(C(CNC(=O)c2cc(S(=O)(=O)Nc3cccc(C)c3)ccc2C)N2CCCC2)cc1", "note": "(stereo not given)", "activity change": "inconclusive: -30.7%"}
{"smiles": "COc1ccc(C(=O)CCS(=O)(=O)c2ccc(C)cc2)cc1", "activity change": "inconclusive: -31.8%"}
{"smiles": "Cc1ccc(N=C2N=C(N)c3ccccc32)cc1C", "activity change": "inconclusive: -45.9%"}
{"smiles": "CCOc1ccc(N(CC(=O)Nc2ccccc2OC)S(=O)(=O)c2ccccc2)cc1", "activity change": "inactive: 49.8%"}
{"smiles": "Cc1cc(Cl)c(S(=O)(=O)N2CCN(c3ccccn3)CC2)cc1OCC(=O)NC1CCCCC1", "activity change": "inconclusive: -40.9%"}
{"smiles": "CC(C)Cc1ccc(CN2C(C)C(=O)N(Cc3cn(Cc4ccco4)nn3)CCS2(=O)=O)cc1", "note": "(stereo not given)", "activity change": "inconclusive: -32.8%"}
{"smiles": "Cc1ccccc1CN1CC2=C(CCN(Cc3ccccc3)C2=O)N2CCN=C12", "activity change": "inactive: -17.4%"}
{"smiles": "COCCN(Cc1cc2cc3c(cc2nc1Cl)OCO3)C(=O)Nc1ccc(F)cc1", "activity change": "active: -70.9%"}
{"smiles": "COc1ccc(Cl)cc1NC(=O)C(C)OC(=O)c1ccc(NS(=O)(=O)c2ccc3[nH]c(=O)[nH]c3c2)cc1", "note": "(stereo not given)", "activity change": "inconclusive: -39.7%"}
{"smiles": "Cc1ccc(S(=O)(=O)Nc2ccc(S(=O)(=O)Nc3nccs3)cc2)c([N+](=O)[O-])c1", "activity change": "inconclusive: -41.5%"}
{"smiles": "O=S(=O)(c1ccc(Br)cc1)N1CCCN(Cc2cccc(F)c2)CC1", "activity change": "active: -55.6%"}
{"smiles": "Cc1ccc(NC(=O)c2cc(N3C(=O)C=CC3=O)ccc2N2CCOCC2)cc1", "activity change": "active: -62.8%"}
{"smiles": "Nc1n[nH]c(N)c1N=Nc1ccc(Cl)cc1", "activity change": "inconclusive: -39.4%"}
{"smiles": "COc1ccc(CN(CC(=O)NC(C)C)C(=O)CCC(=O)Nc2nccs2)cc1", "activity change": "inactive: -6.92%"}
{"smiles": "COc1ccc(-c2ccc(C(=O)NCc3ccco3)c3occc23)c(C)c1", "activity change": "active: -53.2%"}
{"smiles": "CNC(C)C#Cc1ccc2oc3cccc(OC)c3c(=O)c2c1", "note": "(stereo not given)", "activity change": "inactive: 0%"}
{"smiles": "C/C(=N\\NC(=O)C1=NNC(=O)C1C)c1cccs1", "note": "(stereo not given)", "activity change": "inactive: 3.77%"}
{"smiles": "CCNCc1cc(Br)c(OCC(=O)Nc2ccccc2)c(OC)c1", "activity change": "inconclusive: -34.6%"}
{"smiles": "Cc1ccc(C2=NN(C(=O)CSc3nccn3C)C(c3ccco3)C2)cc1", "note": "(stereo not given)", "activity change": "inconclusive: -32.6%"}
{"smiles": "Cc1ccccc1NC(=O)c1cnn(-c2ccccc2)c1C", "activity change": "inconclusive: -35.8%"}
{"smiles": "C=CCCCCCCCCC(=O)NNC1CC(=O)N(c2ccccc2)C1=O", "note": "(stereo not given)", "activity change": "inactive: 3.6%"}
{"smiles": "C=CCn1c(=O)/c(=C/c2ccc(F)cc2)s/c1=C(\\C#N)c1nnc2n1CCCCC2", "activity change": "active: -67.1%"}
{"smiles": "CCOC(=O)c1nnn(CC(=O)Nc2cccc(F)c2)c1C(=O)OCC", "activity change": "active: -64.5%"}
{"smiles": "COc1ccc(CC(=O)N(c2ccccc2)c2nc(C)cs2)cc1", "activity change": "inconclusive: -34.8%"}
{"smiles": "O=C(O)/C=C/c1cn(-c2ccccc2)nc1-c1cc2ccccc2oc1=O", "activity change": "inactive: 44.5%"}
{"smiles": "Cc1ccc(Sc2cnn(-c3ccccc3)c(=O)c2Cl)cc1", "activity change": "inconclusive: -38.3%"}
{"smiles": "Cn1cnc([N+](=O)[O-])c1Cl", "activity change": "active: -94.8%"}
{"smiles": "COc1ccc(Nc2nccc(-c3ccc(C#N)cc3)n2)cc1", "activity change": "inconclusive: -46.4%"}
{"smiles": "CCOc1ccc(C(=O)Nc2ccc(CN3CCOCC3)cc2)cc1Br", "activity change": "inconclusive: -33.4%"}
{"smiles": "Cc1nn(C)c(C(=O)N2CCN(C(=O)c3ccco3)CC2)c1Br", "activity change": "inactive: 18%"}
{"smiles": "CCCCn1c(N)c(N(CCOC)C(=O)COC(=O)CNC(=O)c2ccc(Cl)c(Cl)c2)c(=O)[nH]c1=O", "activity change": "inactive: 0%"}
{"smiles": "O=C(Nc1cccc(C(F)(F)F)c1)c1cccc2c(-c3cccnc3)coc12", "activity change": "inconclusive: -39.5%"}
{"smiles": "CC(=O)N1CCN(Cc2nc3cc(NC(=O)Cn4nc(C)c5ccccc5c4=O)ccc3n2C)CC1", "activity change": "inactive: 0%"}
{"smiles": "CN(CCNC(=O)C1CCN(c2ncnc3c2nc2n3CCCCC2)CC1)Cc1ccccc1", "activity change": "inconclusive: -36.7%"}
{"smiles": "NC(=O)c1nsc(C(=O)N(Cc2cccnc2)C(C(=O)NCc2ccccc2)c2ccc(O)cc2)c1N", "note": "(stereo not given)", "activity change": "inactive: -13.3%"}
{"smiles": "CN(C(=O)c1cccc(NC(=O)Cc2ccc(NC(=O)C3CCCN(C(=O)CCc4ccccc4)C3)cc2)c1)C1CCCC1", "note": "(stereo not given)", "activity change": "inactive: -1.01%"}
{"smiles": "COCCN(CCOC)C(=O)c1cc2sc3ccccc3c2s1", "activity change": "inconclusive: -48%"}
{"smiles": "COc1ccc(CN2CC(=O)N(c3cc(Cl)ccc3C)C2=S)cc1OC", "activity change": "inactive: -22.5%"}
{"smiles": "COc1ccccc1NS(=O)(=O)c1cccc(C(=O)NC2CCN(Cc3ccccc3)CC2)c1", "activity change": "inconclusive: -35.9%"}
{"smiles": "NC(COCc1ccccc1)c1csc(Nc2ccc(C(=O)c3ccccc3)cc2)n1", "note": "(stereo not given)", "activity change": "active: -66%"}
{"smiles": "O=C(Cc1ccc(Cl)cc1)Nc1ccc(C(=O)N2CCOCC2)cc1", "activity change": "inactive: -24.8%"}
{"smiles": "Cc1ccc(OCc2nc(C#N)c(NCc3ccc4c(c3)OCO4)o2)cc1", "activity change": "active: -64.2%"}
{"smiles": "COC(CNC(=O)C1CC(=O)N(CCc2ccc(C)cc2)C1)OC", "note": "(stereo not given)", "activity change": "inactive: 18.5%"}
{"smiles": "CCC1CCCCN1C(=O)c1cccc(S(=O)(=O)Nc2cc(C(F)(F)F)ccc2Cl)c1", "note": "(stereo not given)", "activity change": "inconclusive: -42.9%"}
{"smiles": "CC1(C(=O)NCCC#N)CCN1C(=O)CC(c1ccccc1)c1ccccc1", "note": "(stereo not given)", "activity change": "active: -50.4%"}
{"smiles": "S=C(NCc1ccccc1)Nc1ccc(Cl)cc1", "activity change": "inconclusive: -31.4%"}
{"smiles": "Cc1cc2nc(C3CCN(CC4COc5ccccc5O4)CC3)[nH]c2cc1C", "note": "(stereo not given)", "activity change": "inconclusive: -41%"}
{"smiles": "O=C(CCCOc1ccccc1)Nc1ccc(Cl)c(S(=O)(=O)N2CCOCC2)c1", "activity change": "inconclusive: -45.2%"}
{"smiles": "CN(N=O)c1ccc(CC2CCc3ccccc32)cc1", "note": "(stereo not given)", "activity change": "inconclusive: -39.2%"}
{"smiles": "O=C(Nc1ccc([N+](=O)[O-])cc1)Nc1ccc(N2CCOCC2)c2nonc12", "activity change": "inconclusive: -42.9%"}
{"smiles": "Cc1cccc(OCCOc2ccccc2C=C(C#N)C#N)c1", "activity change": "inconclusive: -31.2%"}
{"smiles": "COc1cc(/C=N/NC(=O)Cc2ccccc2)ccc1Oc1ccc([N+](=O)[O-])cc1[N+](=O)[O-]", "activity change": "inconclusive: -41.3%"}
{"smiles": "COc1ccnc(Oc2cc(Cl)cc(Cl)c2)c1C#N", "activity change": "inactive: 6.69%"}
{"smiles": "O=C(CN(Cc1ccc(F)cc1)C(=O)c1ccco1)NCc1ccc(F)cc1", "activity change": "inconclusive: -30.7%"}
{"smiles": "C[C@]12c3[nH]c4cc(-c5ccco5)ccc4c3CCN1C(=O)[C@@H](CC(=O)NCCc1ccccn1)C[C@@H]2C(=O)N1CCCCC1", "activity change": "active: -108%"}
{"smiles": "CCOC(=O)C(=Cc1ccc(N(C)C)cc1)C(=O)c1ccccc1", "activity change": "active: -74.7%"}
{"smiles": "O=S(=O)(CCS(=O)(=O)c1ccccc1)c1ccccc1", "activity change": "inconclusive: -40.1%"}
{"smiles": "COc1ccccc1Nc1nc(N)nc(CN2CCN(c3ccccc3F)CC2)n1", "activity change": "inactive: 0%"}
{"smiles": "FC(F)(F)c1cnc(Nc2ccc(N3CCOCC3)cc2)c(Cl)c1", "activity change": "inconclusive: -36.9%"}
{"smiles": "O=S(=O)(O)c1cccnc1SCc1ccccc1", "activity change": "inactive: -1.04%"}
{"smiles": "O=C1/C(=C/c2ccc(Cl)cc2)SC(=S)N1CCC(=O)N1CCCCC1CCO", "note": "(stereo not given)", "activity change": "inactive: -26.5%"}
{"smiles": "COc1ccc(C(=O)CCC(=O)N2CCN(c3ccc(C)cc3)C(C)C2)cc1", "note": "(stereo not given)", "activity change": "inconclusive: -33.9%"}
{"smiles": "O=C(N/N=C/c1ccnc2ccccc12)c1ccccc1O", "activity change": "inactive: -19.6%"}
{"smiles": "CCC[n+]1c(C)sc2c3c(ccc21)CCCC3", "activity change": "active: -96.8%"}
{"smiles": "O=C(CCN1C(=O)/C(=C/c2ccc(F)cc2)SC1=S)NC1C=CS(=O)(=O)C1", "note": "(stereo not given)", "activity change": "inconclusive: -40.4%"}
